According to publication PMC9911399, “Two distinct binding modes provide the RNA-binding protein RbFox with extraordinary sequence specificity”:
Changes are numbered by the printed parent chain; changes in the protein carry UniProt numbers. The list shows a part of the results.

T1: RBFOX1 RRM RbFoxmut (Fox-RRM*) (Homo sapiens, UniProt Q9NWB1 109-208, R118D;E147R;N151S;E152T)
T1 sequence: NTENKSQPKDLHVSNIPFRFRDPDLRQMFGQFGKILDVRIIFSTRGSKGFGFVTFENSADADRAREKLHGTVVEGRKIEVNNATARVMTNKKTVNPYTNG

B1: UGUCCAA (DNA:RNA)
RNA: GGGAGACCGGAAUUCAGAUUGUCCUGUCCAAUUAAAUCCCGUCGUAGCCACCA
DNA 1: CAATCTGAATTCCGGTCTCCC
DNA 2: TGGTGGCTACGACGGGATT
B2: AUGGCCC (DNA:RNA)
RNA: B1 RNA with U25A, G26U, U27G, C28G, A30C, A31C
DNA 1: CAATCTGAATTCCGGTCTCCC
DNA 2: TGGTGGCTACGACGGGATT
B3: AAGAGCU (DNA:RNA)
RNA: GGGAGACCGGAAUUCAGAUUGUCCAAGAGCUUUAAAUCCCGUCGUAGCCACCA
DNA 1: CAATCTGAATTCCGGTCTCCC
DNA 2: TGGTGGCTACGACGGGATT
B4: AGCCGAG (DNA:RNA)
RNA: B1 RNA with U25A, U27C, C29G, A31G
DNA 1: CAATCTGAATTCCGGTCTCCC
DNA 2: TGGTGGCTACGACGGGATT
B5: UGAUUUC (DNA:RNA)
RNA: B1 RNA with U27A, C28U, C29U, A30U, A31C
DNA 1: CAATCTGAATTCCGGTCTCCC
DNA 2: TGGTGGCTACGACGGGATT
B6: GUUAACA (DNA:RNA)
RNA: B3 RNA with A25G, A26U, G27U, G29A, U31A
DNA 1: CAATCTGAATTCCGGTCTCCC
DNA 2: TGGTGGCTACGACGGGATT
B7: AUUUGUG (DNA:RNA)
RNA: B3 RNA with A26U, G27U, A28U, C30U, U31G
DNA 1: CAATCTGAATTCCGGTCTCCC
DNA 2: TGGTGGCTACGACGGGATT
B8: AAGCAGA (DNA:RNA)
RNA: B3 RNA with A28C, G29A, C30G, U31A
DNA 1: CAATCTGAATTCCGGTCTCCC
DNA 2: TGGTGGCTACGACGGGATT
B9: GAUAUGA (DNA:RNA)
RNA: B3 RNA with A25G, G27U, G29U, C30G, U31A
DNA 1: CAATCTGAATTCCGGTCTCCC
DNA 2: TGGTGGCTACGACGGGATT
B10: UAAAACC (DNA:RNA)
RNA: B3 RNA with A25U, G27A, G29A, U31C
DNA 1: CAATCTGAATTCCGGTCTCCC
DNA 2: TGGTGGCTACGACGGGATT
B11: UCGUACA (DNA:RNA)
RNA: B3 RNA with A25U, A26C, A28U, G29A, U31A
DNA 1: CAATCTGAATTCCGGTCTCCC
DNA 2: TGGTGGCTACGACGGGATT
B12: CAUGUUC (DNA:RNA)
RNA: B3 RNA with A25C, G27U, A28G, G29U, C30U, U31C
DNA 1: CAATCTGAATTCCGGTCTCCC
DNA 2: TGGTGGCTACGACGGGATT
B13: UGCCCCA (DNA:RNA)
RNA: B1 RNA with U27C, A30C
DNA 1: CAATCTGAATTCCGGTCTCCC
DNA 2: TGGTGGCTACGACGGGATT
B14: UAACUCG (DNA:RNA)
RNA: B3 RNA with A25U, G27A, A28C, G29U, U31G
DNA 1: CAATCTGAATTCCGGTCTCCC
DNA 2: TGGTGGCTACGACGGGATT
B15: CCUAGUC (DNA:RNA)
RNA: B3 RNA with A25C, A26C, G27U, C30U, U31C
DNA 1: CAATCTGAATTCCGGTCTCCC
DNA 2: TGGTGGCTACGACGGGATT
B16: CGUGAUA (DNA:RNA)
RNA: B1 RNA with U25C, C28G, C29A, A30U
DNA 1: CAATCTGAATTCCGGTCTCCC
DNA 2: TGGTGGCTACGACGGGATT
B17: UAUUAGU (DNA:RNA)
RNA: B3 RNA with A25U, G27U, A28U, G29A, C30G
DNA 1: CAATCTGAATTCCGGTCTCCC
DNA 2: TGGTGGCTACGACGGGATT
B18: GGACCUA (DNA:RNA)
RNA: B1 RNA with U25G, U27A, A30U
DNA 1: CAATCTGAATTCCGGTCTCCC
DNA 2: TGGTGGCTACGACGGGATT
B19: CGUCGCA (DNA:RNA)
RNA: B1 RNA with U25C, C29G, A30C
DNA 1: CAATCTGAATTCCGGTCTCCC
DNA 2: TGGTGGCTACGACGGGATT
B20: GAUCCGU (DNA:RNA)
RNA: B1 RNA with U25G, G26A, A30G, A31U
DNA 1: CAATCTGAATTCCGGTCTCCC
DNA 2: TGGTGGCTACGACGGGATT
B21: CCGAAAC (DNA:RNA)
RNA: B3 RNA with A25C, A26C, G29A, C30A, U31C
DNA 1: CAATCTGAATTCCGGTCTCCC
DNA 2: TGGTGGCTACGACGGGATT
B22: UGUUAUA (DNA:RNA)
RNA: B1 RNA with C28U, C29A, A30U
DNA 1: CAATCTGAATTCCGGTCTCCC
DNA 2: TGGTGGCTACGACGGGATT
B23: CUUGAAC (DNA:RNA)
RNA: B1 RNA with U25C, G26U, C28G, C29A, A31C
DNA 1: CAATCTGAATTCCGGTCTCCC
DNA 2: TGGTGGCTACGACGGGATT
B24: UAAGUGC (DNA:RNA)
RNA: B3 RNA with A25U, G27A, A28G, G29U, C30G, U31C
DNA 1: CAATCTGAATTCCGGTCTCCC
DNA 2: TGGTGGCTACGACGGGATT
B25: ACGCUAU (DNA:RNA)
RNA: B3 RNA with A26C, A28C, G29U, C30A
DNA 1: CAATCTGAATTCCGGTCTCCC
DNA 2: TGGTGGCTACGACGGGATT
B26: GGGGAUU (DNA:RNA)
RNA: B3 RNA with A25G, A26G, A28G, G29A, C30U
DNA 1: CAATCTGAATTCCGGTCTCCC
DNA 2: TGGTGGCTACGACGGGATT
B27: GCCGUUU (DNA:RNA)
RNA: B3 RNA with A25G, A26C, G27C, A28G, G29U, C30U
DNA 1: CAATCTGAATTCCGGTCTCCC
DNA 2: TGGTGGCTACGACGGGATT
B28: GGCGUGG (DNA:RNA)
RNA: B1 RNA with U25G, U27C, C28G, C29U, A30G, A31G
DNA 1: CAATCTGAATTCCGGTCTCCC
DNA 2: TGGTGGCTACGACGGGATT
B29: AGCCUAA (DNA:RNA)
RNA: B1 RNA with U25A, U27C, C29U
DNA 1: CAATCTGAATTCCGGTCTCCC
DNA 2: TGGTGGCTACGACGGGATT
B30: UUUAGGA (DNA:RNA)
RNA: B1 RNA with G26U, C28A, C29G, A30G
DNA 1: CAATCTGAATTCCGGTCTCCC
DNA 2: TGGTGGCTACGACGGGATT
B31: CCCCUUC (DNA:RNA)
RNA: B1 RNA with U25C, G26C, U27C, C29U, A30U, A31C
DNA 1: CAATCTGAATTCCGGTCTCCC
DNA 2: TGGTGGCTACGACGGGATT

biological target: T1, RBFOX1 RRM RbFoxmut (Fox-RRM*); assay: EMSA; HiTS-Eq, 1 nM pool, 10 min; buffer printed only for the single-RNA assays: 10 mM Tris pH 7.5, 150 mM NaCl, 3.4 mM EDTA, 0.001% NP-40, 30 C; details: tags: His6 N-terminal (pET28a); label: 5' 32P
Summary of the method: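 Purified RbFox RRM, wild type or mutant, was incubated for 10 min in 50 µL with 1 nM of a 5′-radiolabelled RNA pool carrying 7 randomized nucleotides, whose flanks were annealed to DNA oligonucleotides, over a series of increasing protein concentrations. Unbound RNA was resolved on 8% native PAGE, cut out, reverse-transcribed, barcoded by PCR and sequenced on an Illumina HiSeq 2500. Relative association constants were derived from changes in read counts for each RNA species versus the control reaction and normalised to the cognate motif.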

Binder	binding signal
B1	0.1 KA relative to UGCAUGU
B2	0.09 KA relative to UGCAUGU
B3	0.0786 KA relative to UGCAUGU
B4	0.0913 KA relative to UGCAUGU
B5	0.0674 KA relative to UGCAUGU
B6	0.104 KA relative to UGCAUGU
B7	0.17 KA relative to UGCAUGU
B8	0.105 KA relative to UGCAUGU
B9	0.132 KA relative to UGCAUGU
B10	0.053 KA relative to UGCAUGU
B11	0.0981 KA relative to UGCAUGU
B12	0.119 KA relative to UGCAUGU
B13	0.0711 KA relative to UGCAUGU
B14	0.0683 KA relative to UGCAUGU
B15	0.0963 KA relative to UGCAUGU
B16	0.193 KA relative to UGCAUGU

Binder	binding signal
B17	0.112 KA relative to UGCAUGU
B18	0.0777 KA relative to UGCAUGU
B19	0.146 KA relative to UGCAUGU
B20	0.0824 KA relative to UGCAUGU
B21	0.0811 KA relative to UGCAUGU
B22	0.136 KA relative to UGCAUGU
B23	0.0955 KA relative to UGCAUGU
B24	0.0696 KA relative to UGCAUGU
B25	0.0894 KA relative to UGCAUGU
B26	0.0794 KA relative to UGCAUGU
B27	0.0818 KA relative to UGCAUGU
B28	0.122 KA relative to UGCAUGU
B29	0.0729 KA relative to UGCAUGU
B30	0.0776 KA relative to UGCAUGU
B31	0.066 KA relative to UGCAUGU
